# This sample is rich in variants without activity.
# B1: TPR 5TU (parent)
# chain: GGAUCUUCUCGAUCUAACAAAAAAGACAAAUCUGCCACAAAGCUUGAGAGCAUCUUCGGAUGCAGAGGCGGCAGCCUUCGGUGGCGCGAUAGCGCCAACGUUCUCAACUAUGACACGCAAAACGCGUGCUCCGUUGAAUGGAGUUUAUCAUG
# Variants of: B1
# Assay: polymerase ribozyme fitness, log enrichment relative to wild type (log ratio); higher = more active; in vitro selection for triplet polymerase activity
# Method in brief: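 Fitness is a logarithmic measure of how a genotype enriched relative to the wild type, with replicate averages weighted by inverse variance. The logarithm uses base 2, and enrichment came from Illumina sequencing of input and output libraries. Those libraries were PCR-built, transcribed mutants of each subunit of a heterodimeric triplet polymerase ribozyme, passed through one triplicate in vitro selection round that included frozen incubation at −7 °C, gel excision of extended constructs and streptavidin-bead capture. Genotypes were kept only if they had ≥10 input reads and ≥1 read per output.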
row,Variant,polymerase ribozyme fitness (log ratio)
1,A29C G50C A64C C93G U102A,≤ -4.2
2,A29G A47C A89C G92U G94A U146C,≤ -4.2
3,A29G C57G A113C A138G,≤ -4.2
4,A30C C79A C96U,≤ -4.2
5,A30C A47G A52U G94A C105A G133C G140A A142G,≤ -4.2
6,A30G A40G C54A C85U G117C,≤ -4.2
7,A30C C96A U135A A137U,≤ -4.2
8,A29U G59C G62U C95U C116A,≤ -4.2
9,A29U A41U C75U C123U G143U U145G,≤ -4.2
10,A29G A41U G88U C95G G133U,≤ -4.2
11,A30C A39U G58U A60G G67A A142G U151A,≤ -4.2
12,A29C U56A A73G C79G,≤ -4.2
13,A29U A73C A115G C125A C132G G140U U144G,≤ -4.2
14,A30C G86A,≤ -4.2
15,A29C C43U C63A U78G G81A G94U C108U,≤ -4.2
16,A29G C51G G84A U90A A119U G124C,≤ -4.2
17,A29U A60U G100A U145G G152U,≤ -4.2
18,A30C G50C U53A C63U A64G U77C U78C G141A,≤ -4.2
19,A29G U55A C114A G141U,≤ -4.2
20,A29C C36G C38U A39U G62A G83C U134C,≤ -4.2
21,A29U G81C C118G,≤ -4.2

row,Variant,polymerase ribozyme fitness (log ratio)
1,A29C C35U G50C G58U U61G C96A U134A,≤ -4.2
2,A29U G83A C85U C105U,≤ -4.2
3,A30C A37C A49C A52C C57G G83A A115U G143C,≤ -4.2
4,A29G A41C C95A,≤ -4.2
5,A30C A49C,≤ -4.2
6,A29C C54G A73G C79A G124A,≤ -4.2
7,A30C G59C A60C C93A C99U C114A,≤ -4.2
8,A29G A30C G86U A137U,≤ -4.2
9,A29U G83U A89G C116A A150G,≤ -4.2
10,A29U C99A,-4.17
11,A29C G48C,≤ -4.2
12,A29U G74A G86U C96A A106C,≤ -4.2
13,A29U G80C C95A U102G C105U,≤ -4.2
14,A29C G58C G86A C93U U111A U148A,≤ -4.2
15,A29U U55G G68U C72G G84U C87U C116A C131U,≤ -4.2
16,A29C C38G C54G G81A U82C C85G U90A G92U A110G G128C,≤ -4.2
17,A29C U102A,≤ -4.2
18,A29G A52G,-4.08
19,A29G A47U A49U G94A C131U,≤ -4.2
20,A29U C57G C95U,≤ -4.2
21,A29G A89U C96U A115C A121C G143U,≤ -4.2

row,Variant,polymerase ribozyme fitness (log ratio)
1,A29C C95A G117U G126U G141C G143C,≤ -4.2
2,A29G G84A U144G,≤ -4.2
3,A29U A64U C72U A122G U139A,≤ -4.2
4,A29C U31C A41U C76G C95G,≤ -4.2
5,A30C U44A G86A C95A,≤ -4.2
6,A30G A39C U55G U82C G136U,≤ -4.2
7,A29C U55A C63U C95G G133U G152U,≤ -4.2
8,A29U U45A G48C C85A U111G C114G,≤ -4.2
9,A29U A41U A47C C114G C132U,≤ -4.2
10,A29G A52G C54G C87U G143A,≤ -4.2
11,A29U A60G C76A,≤ -4.2
12,A29C C57A G68A G88C C114U G117C A122G,≤ -4.2
13,A29C C79U G84A G100U C118G A150G,≤ -4.2
14,A29G A49C G67A C114U U127G,≤ -4.2
15,A29G G84U G117A,≤ -4.2
16,A29C G65A C108U C116G C125A U146G A150G,≤ -4.2
17,A29U G58A C63U C69A,≤ -4.2
18,A29U A66C C79U A97U G143C,≤ -4.2
19,A29C A120U G136A A142U,≤ -4.2
20,A29U A52C,≤ -4.2
21,A29G C32G U55C A91G C103U A142U U151C,≤ -4.2

row,Variant,polymerase ribozyme fitness (log ratio)
1,A29U C38U U56G C63G C95G G126U,≤ -4.2
2,A29G U55G U56A G68A C96U,≤ -4.2
3,A29G G68U G83C G86A U90C G141A U144G,≤ -4.2
4,A29U U55A A60G G86A U130C,≤ -4.2
5,A30C G48C A66G C75U A121C,≤ -4.2
6,A30C C79G C85U A106U,≤ -4.2
7,A30C G74A G81C C96A,≤ -4.2
8,A29C G62U G80C C118A,≤ -4.2
9,A29U G34U G65C U101A A106U,≤ -4.2
10,A29G A52C C85A U90C C95G A97G C118A A138C G143U,≤ -4.2
11,A29C C54U C79G C116A A142C,≤ -4.2
12,A29G C57G C63A A64G A73G C96G G133C U145A,≤ -4.2
13,A29U G65A A121G G141U,≤ -4.2
14,A29U G124A G141C,≤ -4.2
15,A29U G50A G58C A60C G88A C116G U139A G141C G143C,-3.79
16,A30C A52C C76U C87U,≤ -4.2
17,A29U A30U A37U A47G G50C A97U G100U A106C,≤ -4.2
18,A29U G133C,≤ -4.2
19,A29U U61A,≤ -4.2
20,A30C U53A C54A G83C A106C U144G,≤ -4.2
21,A29G A47C G80U U101A A107U U127C,≤ -4.2

# Source: the RNAGym collection of RNA variant scans (doi:10.1073/pnas.2313332121)
